# Measured values published in PMC10092757.
# These are yes or no findings as the source states them, for the method shown. Binding seen in cells or lysates may run through a third protein. Some results given as binding are weak or reduced against the parent protein; the word gives no strength. Where a sequence is shown, tags or fusion partners need not be part of it.
# T1: Perilipin1, HA-tagged (mouse) (UniProt Q8CGN5)
# T1 sequence: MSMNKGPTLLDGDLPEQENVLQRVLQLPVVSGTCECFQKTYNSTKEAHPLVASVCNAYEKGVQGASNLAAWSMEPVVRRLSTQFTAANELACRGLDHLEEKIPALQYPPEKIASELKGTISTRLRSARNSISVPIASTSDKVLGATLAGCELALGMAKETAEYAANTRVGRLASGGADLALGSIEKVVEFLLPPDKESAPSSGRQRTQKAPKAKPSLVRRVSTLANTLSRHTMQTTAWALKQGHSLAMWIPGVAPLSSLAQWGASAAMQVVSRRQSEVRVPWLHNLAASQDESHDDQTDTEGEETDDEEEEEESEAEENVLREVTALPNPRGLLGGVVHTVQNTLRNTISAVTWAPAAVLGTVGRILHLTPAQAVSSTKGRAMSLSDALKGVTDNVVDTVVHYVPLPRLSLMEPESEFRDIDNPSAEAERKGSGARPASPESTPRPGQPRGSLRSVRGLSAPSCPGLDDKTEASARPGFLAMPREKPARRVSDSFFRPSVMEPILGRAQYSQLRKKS
# B1: BAP31 mutant 1-165, Flag-tagged (lacks the C-terminal cytoplasmic portion) (domain or fragment, UniProt Q61335 1-165)
# chain: MSLQWTTVATFLYAEVFAVLLLCIPFISPKRWQKVFKSRLVELVVTYGNTFFVVLIVILVLLVIDAVREILKYDDVTEKVNLQNNPGAMEHFHMKLFRAQRNLYIAGFSLLLSFLLRRLVTLISQQATLLASNEAFKKQAESASEAAKKYMEENDQLKKGAAEDG
# B2: B-cell receptor-associated protein 31, Flag-tagged, full length (protein, UniProt Q61335 1-245)
# chain: MSLQWTTVATFLYAEVFAVLLLCIPFISPKRWQKVFKSRLVELVVTYGNTFFVVLIVILVLLVIDAVREILKYDDVTEKVNLQNNPGAMEHFHMKLFRAQRNLYIAGFSLLLSFLLRRLVTLISQQATLLASNEAFKKQAESASEAAKKYMEENDQLKKGAAEDGDKLDIGNTEMKLEENKSLKNDLRKLKDELASTKKKLEKAENEALAMQKQSEGLTKEYDRLLEEHAKLQASVRGPSVKKEE
# B3: truncated BAP31 containing amino acids 123-245, Flag-tagged (domain or fragment, UniProt Q61335 123-245)
# chain: ISQQATLLASNEAFKKQAESASEAAKKYMEENDQLKKGAAEDGDKLDIGNTEMKLEENKSLKNDLRKLKDELASTKKKLEKAENEALAMQKQSEGLTKEYDRLLEEHAKLQASVRGPSVKKEE
# B4: truncated BAP31 containing amino acids 165-245, Flag-tagged (domain or fragment, UniProt Q61335 165-245)
# chain: GDKLDIGNTEMKLEENKSLKNDLRKLKDELASTKKKLEKAENEALAMQKQSEGLTKEYDRLLEEHAKLQASVRGPSVKKEE
# B5: BAP31 mutant 1-124, Flag-tagged (lacks the C-terminal cytoplasmic portion) (domain or fragment, UniProt Q61335 1-124)
# chain: MSLQWTTVATFLYAEVFAVLLLCIPFISPKRWQKVFKSRLVELVVTYGNTFFVVLIVILVLLVIDAVREILKYDDVTEKVNLQNNPGAMEHFHMKLFRAQRNLYIAGFSLLLSFLLRRLVTLIS
# Biological target: T1, Perilipin1, HA-tagged (mouse)
# Assay: co-IP; 3T3-L1 preadipocytes transfected with BAP31-Flag constructs and Plin1-HA; IP lysis buffer 20 mM Tris pH 7.5, 150 mM NaCl, 1% Triton X-100; anti-HA (and/or anti-Flag) antibody overnight at 4°C, protein A/G beads; immunoblot with anti-Flag
row,binding,Binder
1,no binding,B1
2,binds,B2
3,binds,B3
4,binds,B4
5,no binding,B5
